Literature values, collected in paper PMC11006913.
This is one part of the list.

Tests used:
Conditions in all cases: PBM; conditions not shown; double strand, one strand shown; scale: upbm affinity estimate (log intensity, higher = more binding, comparable within an allelic series)
ARX (Homo sapiens) = ARX (Homo sapiens) (UniProt Q96QS3)
ARX L343Q (Homo sapiens) = ARX L343Q (Homo sapiens) (UniProt Q96QS3)
ARX P353L (Homo sapiens) = ARX P353L (Homo sapiens) (UniProt Q96QS3)
ARX P353R (Homo sapiens) = ARX P353R (Homo sapiens) (UniProt Q96QS3)
ARX R332H (Homo sapiens) = ARX R332H (Homo sapiens) (UniProt Q96QS3)
ARX T333N (Homo sapiens) = ARX T333N (Homo sapiens) (UniProt Q96QS3)

Sequence	binding signal (ARX (Homo sapiens))	binding signal (ARX L343Q (Homo sapiens))	binding signal (ARX P353L (Homo sapiens))	binding signal (ARX P353R (Homo sapiens))	binding signal (ARX R332H (Homo sapiens))	binding signal (ARX T333N (Homo sapiens))
CCCGGCGG [8-mer CCCGGCGG]	10.1	10	10.1	9.97	9.96	10.2
GCCCCTCC [8-mer GCCCCTCC]	10.1	10.2	10.2	10	10.2	10.3
CTGGGCGA [8-mer CTGGGCGA]	10.3	10.2	10.5	10.2	10.2	10.4
AGCCCCCG [8-mer AGCCCCCG]	10.2	10	10.1	9.86	9.97	10.2
AGGCGGCA [8-mer AGGCGGCA]	10.3	10.1	10.3	10.1	10.1	10.3
GTCAATAA [8-mer GTCAATAA]	11.6	10.8	11.4	10.7	10.9	11.3
CGCAGTGC [8-mer CGCAGTGC]	10.3	10.2	10.2	10.2	10.4	10.2
CGCCACGC [8-mer CGCCACGC]	10	10	10	9.98	10.1	10.1
CAGCCGCC [8-mer CAGCCGCC]	10.1	10.1	10.1	9.96	10.1	10.2
CGGTGCCC [8-mer CGGTGCCC]	10.3	10.2	10.3	10.2	10.3	10.3
CACGCCTC [8-mer CACGCCTC]	10.2	10.3	10.2	10.2	10.3	10.2
GCGCGGCA [8-mer GCGCGGCA]	10.1	10.1	10.1	10	10.1	10.2
GGGCGCGA [8-mer GGGCGCGA]	10	9.97	10	9.93	10	10.1
